Out of some 52,000 compounds screened, about 1,700 (3.3%) were called active. Rule as the data show it: active = survival mostly below about 52% (no sharp cut-off); inactive = mostly above about 56%. Some of the results follow.
Each compound was assayed on Wild type (assay: growth inhibition of S. aureus wild type versus tarO mutant, primary screen, teichoic acid synthesis inhibitors, RN4220, OD600 (AID 463173)). Details: S. aureus RN4220 wild type/DeltatarO growth, OD600, 18 h, hits give low values, screened at 18.75 µg/mL (by protocol).
`CCc1cccc(NS(=O)(=O)c2cc(-c3cnc(C)o3)ccc2OC)c1` was tested, and the survival was inactive: 77%. `CCOC(=O)Cn1c(=O)n(CC2CCCO2)c2nc(-c3c(F)cccc3Cl)nc(C(N)=O)c21` (centres undefined) was tested, and the survival was inactive: 82%. `COc1ccc(C(=O)Nc2nc3n(n2)C(c2ccc(F)cc2)C=C(c2ccc(Cl)cc2)N3)cc1` (centres undefined) was tested, and the survival was inactive: 73%. In the case of `CCn1c(=O)c2sccc2n2c(CCCC(=O)Nc3ccc(OC)c(OC)c3)nnc12`, the survival was inactive: 99%. For `Cc1c(C(=O)N(C)C)sc2c1c(=O)n(-c1ccc(Cl)c(Cl)c1)c(=O)n2CC(=O)Nc1ccc(Br)cc1F`, the survival was inactive: 148%. For `CCOC(=O)c1ccc(NC(=O)c2cc3c([nH]c2=O)CC(c2ccccc2)CC3=O)cc1` (centres undefined), the survival was inactive: 76%. `CC(c1ccccc1F)n1cc(C(=O)NCC2CCCO2)nn1` (centres undefined) was tested, and the survival was inactive: 102%. In the case of `O=C(Nc1ccccc1)C1CCCN1C(=O)Nc1ccc(F)cc1` (centres undefined), the survival was inactive: 112%. `COc1cccc(-c2n[nH]c3c2C(c2ccccn2)N(C)C3=O)c1` (centres undefined) was tested, and the survival was inactive: 83%. In the case of `O=C(CC1N=C2c3ccccc3N=C(SCC(=O)Nc3ccc(F)cc3)N2C1=O)NCc1ccc2c(c1)OCO2` (centres undefined), the survival was inactive: 80%. `Cc1cccc(NC(=O)Cn2cc(S(=O)(=O)Cc3ccccc3Cl)c3ccccc32)c1` was tested, and the survival was inactive: 83%. In the case of `COc1ccc(-n2cc(-c3ccc4c(c3)OCO4)n(CC(=O)Nc3cccc(C)c3)c2=O)cc1`, the survival was inactive: 80%. `CCCCC1CCC(CCCC(C)CCC(=O)O)CC1` (centres undefined) was tested, and the survival was active: -5%. With `Cc1ccccc1Cn1c(SCc2ccc(C(=O)NCCc3ccccc3)cc2)nc2ccncc21` the survival was inactive: 98%. `Cc1cc(C)n(C(C)CC(=O)Nc2ccc(C)c(F)c2)n1` (centres undefined) was tested, and the survival was inactive: 85%. In the case of `CSc1ncc(Cl)c(C(=O)N(Cc2ccc(C(C)C)cc2)C2CCS(=O)(=O)C2)n1` (centres undefined), the survival was inactive: 81%. With `CC(C)CCNc1ncnc2c1cnn2-c1cccc(Cl)c1` the survival was inactive: 101%. In the case of `Cc1ccccc1C(c1c(C)n(C)n(-c2ccccc2)c1=O)c1c(C)n(C)n(-c2ccccc2)c1=O`, the survival was inactive: 81%. `O=C(Cc1ccc(Cl)cc1)Nc1ccc2nn(-c3ccccc3)nc2c1` was tested, and the survival was inactive: 95%. For `Cc1ccccc1OCc1nnc(SCC(=O)N(Cc2ccccc2)C(C)(C)C)o1`, the survival was inactive: 129%. In the case of `O=C(Oc1c(Cl)cc(Cl)c2cccnc12)N1CCCCCC1`, the survival was inactive: 109%. `Cc1ccc(-n2c(SCC(=O)Nc3c(C)cccc3C)nc(O)c(C)c2=O)cc1` was tested, and the survival was inactive: 70%. With `CCC1CN(C(=O)N2CCC(C(=O)NCc3ccco3)CC2)c2ccccc2O1` (centres undefined) the survival was inactive: 86%. `COCCNC(=O)C(=O)NCC(c1cccnc1)N1CCN(c2ccccc2)CC1` (centres undefined) was tested, and the survival was inactive: 82%. `CCOc1ccccc1NC(=O)CN1C(=O)C2(SCC(=O)N2c2ccc(C)cc2)c2ccccc21` (centres undefined) was tested, and the survival was inactive: 74%. With `CC(=O)c1cccc(NC(=O)N2CCC(CN3CCCCC3)CC2)c1` the survival was inactive: 71%. In the case of `CC(C)c1ccc(NC(=O)Cn2c(=O)n(Cc3nc(-c4ccccc4)no3)c(=O)c3cc4c(cc32)OCO4)cc1`, the survival was inactive: 81%. In the case of `CCOc1ccc2c(c1)c(=O)c(C(=O)c1ccc(C)cc1)cn2Cc1ccccc1OC`, the survival was inactive: 88%. For `CCS(=O)(=O)c1ncc(Cl)c(C(=O)N(Cc2ccccc2)c2ccc(OC)cc2)n1`, the survival was inactive: 36%. `Cc1ccc(-n2ncc3c(=O)n(Cc4ccccc4C)cnc32)cc1C` was tested, and the survival was inactive: 115%. `Cc1cc(C)c(CN2C(=O)c3ccccc3S(=O)(=O)c3ccc(C(=O)OCC4CCCO4)cc32)c(C)c1` (centres undefined) was tested, and the survival was inactive: 68%. `CCCN(Cc1cccs1)C(=O)Nc1ccc(F)c(Cl)c1` was tested, and the survival was inactive: 84%. With `COc1cc(Cl)c(NC(=O)C(NS(=O)(=O)c2cccs2)C(C)C)c(OC)c1` (centres undefined) the survival was inactive: 71%. For `Cc1ccc(Nc2nc3nonc3n3cnnc23)cc1Cl`, the survival was inactive: 88%. With `COc1ccc(OC)c(Nc2c3c(nc4ccccc24)CCC3)c1` the survival was inactive: 88%. In the case of `CCc1ccc(NC(=O)c2ccc(F)c(S(=O)(=O)NCCc3ccc(OC)c(OC)c3)c2)cc1`, the survival was inactive: 81%. `COc1cccc(Nc2sc(C(=O)c3ccc(Cl)cc3)c(N)c2C(=O)NCCc2ccc(OC)c(OC)c2)c1` was tested, and the survival was inactive: 75%. With `CS(=O)(=O)N1CCc2cc(C(=O)Nc3ccc(S(N)(=O)=O)cc3)ccc21` the survival was inactive: 91%. With `O=C1c2ccccc2C(=O)N1c1ccccc1S(=O)C(F)(F)F` (centres undefined) the survival was inactive: 111%. In the case of `Cc1cccc(C(=O)OCc2cc(=O)n3nc(-c4cccs4)sc3n2)c1`, the survival was inactive: 73%. In the case of `CCCSc1nnc2n(-c3cccc(C)c3)c(=O)c3c4c(sc3n12)CCCC4`, the survival was active: 2%. `Cc1ccc(C)c(NC(=O)Cn2c(=O)n(Cc3ccc4c(c3)OCO4)c(=O)c3ccccc32)c1` was tested, and the survival was inactive: 116%. In the case of `CC(C)(C)OC(=O)N1CCC(c2c(C(=O)N3CCCCC3)cnn2-c2ccc(F)cc2F)CC1`, the survival was inactive: 63%. `Cn1c(Oc2ccccc2)nc2c1c(=O)n(Cc1ccc(Cl)cc1Cl)c(=O)n2C` was tested, and the survival was inactive: 82%. For `Cc1ccc(-n2ncc(C(=O)NCCCN3CCN(C)CC3)c2C2CCN(C(=O)OC(C)(C)C)CC2)c(C)c1`, the survival was inactive: 79%. `Cc1cc(C)cc(OCC(=O)NCCN2CCOCC2)c1` was tested, and the survival was inactive: 109%. In the case of `O=C(CCn1cnc2onc(-c3ccc(F)cc3)c2c1=O)N1CCN(c2ccccc2F)CC1`, the survival was active: -6%. For `COC(=O)c1ccccc1NC(=O)Cn1c(=O)cc(C)c2c(C)nn(-c3cccc(Cl)c3C)c21`, the survival was inactive: 88%. For `Cc1ccc2c(CC(=O)N(Cc3cccc(Cl)c3)C3CCS(=O)(=O)C3)coc2c1` (centres undefined), the survival was inactive: 56%. In the case of `Cc1ccc(C(=O)CC2(O)C(=O)N(Cc3ccccc3)c3ccccc32)c(C)c1` (centres undefined), the survival was inactive: 20%. In the case of `CNS(=O)(=O)c1cn(CC(=O)N2CCN(c3ccccc3OC)CC2)cc1S(=O)(=O)NC`, the survival was inactive: 68%. `CCOC(=O)C1CCCN(C(=O)c2ccc(NC(=O)c3nsc4ccccc34)cc2)C1` (centres undefined) was tested, and the survival was inactive: 57%. With `COc1ccc(Cl)cc1NC(=O)Cn1cnc2sc(C)c(S(=O)(=O)N3CCN(c4ccccc4OC)CC3)c2c1=O` the survival was inactive: 71%. In the case of `Cc1cc2cc(CN(Cc3ccccc3)C(=O)N(C)C)c3nnnn3c2cc1C`, the survival was inactive: 106%.

From PubChem BioAssay AID463173 (ICCB-Longwood Screening Facility, Harvard Medical School, 2010)
